{
  "sequences": {"note": "By UniProt entry, the sequences of proteins in these tests, tags left out. Where a name states a change or a piece, a line headed by the entry shows the natural chain unless it says otherwise.", "UniProt O35625": "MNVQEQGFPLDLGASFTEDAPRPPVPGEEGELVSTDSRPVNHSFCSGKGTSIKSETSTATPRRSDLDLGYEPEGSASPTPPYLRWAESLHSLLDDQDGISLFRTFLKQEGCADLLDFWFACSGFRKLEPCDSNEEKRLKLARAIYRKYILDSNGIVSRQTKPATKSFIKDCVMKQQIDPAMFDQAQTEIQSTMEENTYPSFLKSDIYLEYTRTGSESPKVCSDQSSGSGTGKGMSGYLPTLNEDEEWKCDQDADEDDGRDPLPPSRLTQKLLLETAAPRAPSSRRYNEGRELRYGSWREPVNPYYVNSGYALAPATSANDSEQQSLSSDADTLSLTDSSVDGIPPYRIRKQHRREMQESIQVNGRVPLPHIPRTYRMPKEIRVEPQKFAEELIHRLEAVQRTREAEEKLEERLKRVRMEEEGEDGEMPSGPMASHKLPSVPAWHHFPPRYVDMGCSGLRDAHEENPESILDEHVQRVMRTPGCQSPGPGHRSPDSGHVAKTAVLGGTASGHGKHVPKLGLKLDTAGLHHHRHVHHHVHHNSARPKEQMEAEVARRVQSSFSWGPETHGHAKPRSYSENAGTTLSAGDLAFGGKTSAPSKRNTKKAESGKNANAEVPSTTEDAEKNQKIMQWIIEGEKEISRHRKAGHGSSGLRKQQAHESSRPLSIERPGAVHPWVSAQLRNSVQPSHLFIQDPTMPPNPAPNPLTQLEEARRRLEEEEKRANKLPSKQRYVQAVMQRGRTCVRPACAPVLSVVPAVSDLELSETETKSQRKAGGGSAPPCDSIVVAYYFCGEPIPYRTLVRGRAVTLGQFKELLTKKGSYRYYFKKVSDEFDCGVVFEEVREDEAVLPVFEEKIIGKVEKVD", "UniProt Q93009": "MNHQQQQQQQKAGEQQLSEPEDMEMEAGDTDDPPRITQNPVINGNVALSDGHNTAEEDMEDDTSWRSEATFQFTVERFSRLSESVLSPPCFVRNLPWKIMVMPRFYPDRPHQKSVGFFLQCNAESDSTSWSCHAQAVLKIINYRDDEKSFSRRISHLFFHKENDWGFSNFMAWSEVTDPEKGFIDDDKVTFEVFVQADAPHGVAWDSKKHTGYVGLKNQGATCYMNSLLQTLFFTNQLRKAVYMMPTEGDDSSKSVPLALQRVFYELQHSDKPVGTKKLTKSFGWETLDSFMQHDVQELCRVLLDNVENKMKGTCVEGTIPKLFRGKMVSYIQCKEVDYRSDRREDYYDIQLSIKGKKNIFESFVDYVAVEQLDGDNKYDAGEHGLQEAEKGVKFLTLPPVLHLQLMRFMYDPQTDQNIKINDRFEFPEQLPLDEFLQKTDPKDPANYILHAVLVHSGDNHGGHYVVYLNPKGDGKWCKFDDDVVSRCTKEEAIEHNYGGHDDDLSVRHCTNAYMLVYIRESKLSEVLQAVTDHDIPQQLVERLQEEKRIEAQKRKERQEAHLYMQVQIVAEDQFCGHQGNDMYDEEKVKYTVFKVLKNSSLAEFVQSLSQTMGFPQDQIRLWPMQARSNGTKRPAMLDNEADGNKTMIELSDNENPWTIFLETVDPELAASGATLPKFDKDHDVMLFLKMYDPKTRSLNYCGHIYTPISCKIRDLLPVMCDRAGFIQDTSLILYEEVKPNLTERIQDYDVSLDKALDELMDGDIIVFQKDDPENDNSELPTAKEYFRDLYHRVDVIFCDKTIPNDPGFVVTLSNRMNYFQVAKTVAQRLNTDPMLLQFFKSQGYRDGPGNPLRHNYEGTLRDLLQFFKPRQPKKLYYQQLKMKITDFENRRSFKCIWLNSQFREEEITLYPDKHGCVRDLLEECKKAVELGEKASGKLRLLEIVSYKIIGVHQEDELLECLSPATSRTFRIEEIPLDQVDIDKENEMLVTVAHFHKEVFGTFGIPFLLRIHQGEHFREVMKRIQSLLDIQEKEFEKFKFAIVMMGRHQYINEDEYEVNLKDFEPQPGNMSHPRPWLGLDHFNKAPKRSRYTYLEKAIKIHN", "UniProt O15169": "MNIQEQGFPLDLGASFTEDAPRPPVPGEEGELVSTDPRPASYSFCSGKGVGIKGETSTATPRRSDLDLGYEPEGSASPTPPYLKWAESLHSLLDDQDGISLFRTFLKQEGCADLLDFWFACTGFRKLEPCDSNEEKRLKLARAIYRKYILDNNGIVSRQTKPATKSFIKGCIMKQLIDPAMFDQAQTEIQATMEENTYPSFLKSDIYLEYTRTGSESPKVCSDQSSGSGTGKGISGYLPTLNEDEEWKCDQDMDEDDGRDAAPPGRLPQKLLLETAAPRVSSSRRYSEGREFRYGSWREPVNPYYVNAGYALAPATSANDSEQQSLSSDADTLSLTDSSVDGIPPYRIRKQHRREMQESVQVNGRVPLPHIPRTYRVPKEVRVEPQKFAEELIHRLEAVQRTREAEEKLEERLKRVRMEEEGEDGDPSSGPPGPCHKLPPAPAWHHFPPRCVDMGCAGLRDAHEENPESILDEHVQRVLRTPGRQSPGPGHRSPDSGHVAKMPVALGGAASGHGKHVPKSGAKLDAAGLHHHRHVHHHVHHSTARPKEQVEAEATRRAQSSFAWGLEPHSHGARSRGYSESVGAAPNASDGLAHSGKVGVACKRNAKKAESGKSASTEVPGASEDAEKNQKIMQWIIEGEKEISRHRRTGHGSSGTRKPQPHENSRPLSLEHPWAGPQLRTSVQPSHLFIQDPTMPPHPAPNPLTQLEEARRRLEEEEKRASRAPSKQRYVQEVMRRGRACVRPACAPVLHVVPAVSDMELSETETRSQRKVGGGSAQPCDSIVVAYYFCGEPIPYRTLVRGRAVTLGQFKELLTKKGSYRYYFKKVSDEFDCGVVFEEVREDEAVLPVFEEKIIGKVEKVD"},
  "source": "paper PMC6744515",
  "key": {"[1]": {"biological_target": "His-SUMO tagged full-length Axin1 (a.a. 1–863) (UniProt O35625)", "assay": "pull-down; Ni-NTA pulldown: purified His-SUMO-Axin1 with cell lysates containing ectopically expressed Myc-USP7; only the target purified"}, "[2]": {"biological_target": "endogenous USP7 (human (endogenous in HEK293T)) (UniProt Q93009)", "assay": "co-IP; endogenous proteins in HEK293T lysate; USP7 antibody or normal rabbit IgG overnight, magnetic Protein A beads 2 h at 4 °C, immunoblot"}, "[3]": {"biological_target": "Myc-USP7 C223A (UniProt Q93009)", "assay": "co-IP; ectopically expressed tagged proteins; cleared NP40 lysates incubated with anti-Myc tag magnetic beads 2 h at 4 °C, washed three times with lysis buffer, immunoblot"}, "[4]": {"biological_target": "Myc-USP7 (wild type) (UniProt Q93009)", "assay": "co-IP; ectopically expressed tagged proteins; cleared NP40 lysates incubated with anti-Myc tag magnetic beads 2 h at 4 °C, washed three times with lysis buffer, immunoblot"}, "[5]": {"biological_target": "Myc-USP7 W165A (UniProt Q93009)", "assay": "co-IP; ectopically expressed tagged proteins; cleared NP40 lysates incubated with anti-Myc tag magnetic beads 2 h at 4 °C, washed three times with lysis buffer, immunoblot"}},
  "note": "These are yes or no findings as the source states them, for the method shown. In cells and extracts the contact can be indirect. Some results given as binding are weak or reduced against the parent protein; the word gives no strength.",
  "data": [
    {"substance": "Myc-USP7 (wild type) (from UniProt Q93009 1-1102) (enzyme)", "values": [
      {"measurement": "binding", "setting": "[1]", "value": "binds"}
    ]},
    {"substance": "endogenous AXIN1 (from UniProt O15169 1-862)", "values": [
      {"measurement": "binding", "setting": "[2]", "value": "binds"}
    ]},
    {"substance": "Flag-Axin1 (from UniProt O35625 1-863)", "values": [
      {"measurement": "binding", "setting": "[3]", "value": "binds"},
      {"measurement": "binding", "setting": "[4]", "value": "binds"},
      {"measurement": "binding", "setting": "[5]", "value": "no binding"}
    ]},
    {"substance": "Myc-USP7 W165A (from UniProt Q93009 1-1102) (enzyme)", "values": [
      {"measurement": "binding", "setting": "[1]", "value": "no binding"}
    ]}
  ]
}
